# Reference: PubChem BioAssay (NCATS)
# This list was built around the results that the source calls inconclusive (neither active nor inactive); the mix of calls is not that of the screen. No potency is given beside an inconclusive call; the fits are too rough. Activity calls are given as the source filed them. Calls come from the whole dose curve; as a rule, active = well fitted curve in the direction sought with a large enough effect; inconclusive = small, poorly fitted or top-dose-only effect, or another doubt; inactive = no such curve, though single readings can be large; an effect the other way counts as inactive or inconclusive.
# Molecular target: Aldehyde dehydrogenase, mitochondrial (Homo sapiens) (UniProt P05091)
# Test: qHTS for Inhibitors of the Aldehyde Dehydrogenase Family (ALDH2) Primary screen (AID 2061308); note: nearly all actives have a fitted effect of over 55% in size;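 for activity change, negative = inhibition: plate controls were vehicle for no effect and reference inhibitor for full effect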
# Details: ALDH2 enzyme inhibition qHTS, 1536-well; series mostly up to 56 µM
# Potency is the fitted concentration of half-maximal effect; tags give direction and shape of the fitted curve.
row,Compound,Potency
1,O=C1CCCC2=C1C(c1[nH]ncc1Cl)N=C(Nc1nc3ccccc3o1)N2 (centres undefined),inactive
2,CNS(=O)(=O)c1ccc2c(c1)/C(=C/c1[nH]c3c(c1CCCN1CCN(C)CC1)CCCC3)C(=O)N2,inactive
3,C[C@H](Nc1ncnc2nc[nH]c12)c1cc2cccc(Cl)c2c(=O)n1-c1ccccc1,"inconclusive [inhibitor, full curve]"
4,CN(C)c1ccc(-c2nc3ncc(Cl)c(N4CCN(CC(=O)Nc5nccs5)CC4)c3[nH]2)cc1,"inconclusive [inhibitor, partial curve, poor fit]"
5,CCCCOc1c(C(=O)c2c(F)cc(C)cc2F)cnc2n[nH]cc12,inactive

# Molecular target: Retinaldehyde dehydrogenase 3 (Homo sapiens) (UniProt P47895)
# Test: qHTS for Inhibitors of the Aldehyde Dehydrogenase Family (ALDH1A3) Confirmatory screens (AID 2061311); note: nearly all actives have a fitted effect of over 60% in size; for activity change, negative = inhibition: % is set by controls: 0 for no effect and ±100 for the full control effect
# Details: ALDH inhibition qHTS; activity change, negative = inhibition: at 46 µM (top of the series); series mostly up to 46 µM
Compound,Potency,"activity change, negative = inhibition"
CCOCc1ccccc1Nc1ncnc2onc(-c3ccc(Cl)cc3)c12,inactive,–
COc1ccc(C(=O)NC2CCCN(Cc3ccc(-c4cccc(OC)c4)cc3)C2)cc1 (centres undefined),"inconclusive [inhibitor, full curve]",–
Cc1ccc(-n2c(=O)c3c(cnn3C)n(CC(=O)Nc3cccc(Cl)c3)c2=O)cc1,inactive,–
Clc1ccc(-c2noc3ncnc(NCCc4ccccc4)c23)cc1,"inconclusive [inhibitor, full curve]",–
COc1ccc(OC)c(NC(=O)CC(=O)Nc2ccc3nc4n(c(=O)c3c2)CCCCC4)c1,–,inconclusive: -33.9% [inhibitor]
Cn1ncc2c(C(=O)NCc3ccc(F)cc3)cc(-c3ccc(F)cc3)nc21,inactive,–
Cc1ccc(CC(=O)Nc2c(C(=O)N3CCN(c4ccccc4)CC3)oc3ccccc23)cc1,"inconclusive [inhibitor, full curve]",–
Cn1c(=O)c2c(nc(Oc3ccc(C#N)cc3)n2Cc2ccc(Cl)cc2Cl)n(C)c1=O,"inconclusive [inhibitor, single point]",–
COc1ccc(N2CCN(c3oc(/C=C/c4cccc(OC)c4)nc3C#N)CC2)cc1,"inconclusive [inhibitor, full curve]",–
CCOc1ccc(NC(=O)C(=O)NCCc2ccccc2)cc1,inactive,–
N#Cc1ccccc1NC(=O)Cn1cnc2onc(-c3cccc(F)c3)c2c1=O,inactive,–
Cc1ccc(C(=O)c2cn(Cc3cccc(F)c3)c3nc(C)ccc3c2=O)cc1,inactive,–
Cc1cc2nc3n(c(=O)c2n1CC(=O)Nc1ccc(Cl)cc1F)CCC3,–,inconclusive: -32.5% [inhibitor]
Cc1cc(C)n2nc(SCC(=O)Nc3ccccc3C)nc2n1,inactive,–
O=C(Nc1ccc([C@@H](O)[C@H]2COCC(=O)N2CCCc2ccccc2)cc1)c1ccco1,inactive,–
Cc1ccc(-c2ccc(CN)cc2)c(C)c1,"inconclusive [inhibitor, single point]",–
O=S(=O)(c1ccccc1)c1nnn2c1nc(NC1CCCC1)c1ccccc12,inactive,–
CC(=O)Nc1ccc(CN2CCCC(N3CCN(c4ccccc4)CC3)C2)cc1 (centres undefined),inactive,–
COCCNC(=O)c1cc(-c2ccc(OC)cc2)nc2c1c(C)nn2-c1ccccc1,active: 25.1 µM,–
CCOc1ccc(NC(=O)N2CCC(CC(=O)NCc3ccccc3)C2)cc1 (centres undefined),inactive,–
COc1ccc(C(=O)NCc2nnc3ccc(-c4ccc(C)cc4)nn23)c(C)c1,"inconclusive [inhibitor, partial curve]",–
CN(Cc1cccc(C(=O)Nc2cccc(C#N)c2)c1)CC1COCCO1 (centres undefined),"inconclusive [inhibitor, full curve]",–
CCc1ccc(S(=O)(=O)c2nnn3c2nc(NC(C)C)c2cc(Cl)ccc23)cc1,"inconclusive [inhibitor, partial curve]",–
Cc1cc2nc3n(c(=O)c2n1CC(=O)Nc1ccc(Br)cc1F)CCC3,inactive,–
